Measured values reported in PubChem BioAssay AID504332 (National Center for Advancing Translational Sciences (NCATS), 2011).
In all, about 350,000 compounds went through this assay and about 31,000 (8.9%) were called active. The inconclusive results got no clear call from the source; some entries with a clear call stand among them for comparison. Calls come from the whole dose curve; as a rule, active = well fitted inhibition curve with a large enough effect; inconclusive = small, poorly fitted or top-dose-only effect; inactive = no such curve, though single readings can be large or run the other way. Potencies beside an inconclusive call are fits to weak or partial responses and may not hold up.

Target: Histone-lysine N-methyltransferase EHMT2 (Homo sapiens) (UniProt Q96KQ7)
Assay: qHTS Assay for Inhibitors of Histone Lysine Methyltransferase G9a; note: nearly all actives have a fitted effect of over 75% in size
Conditions: G9a H3K9 monomethylation, AlphaScreen, 2 h; activity, negative = inhibition: at 59 µM (top of the series) unless noted
Summary of the method: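 Compounds were preincubated with 20 nM G9a for 15 min, after which biotinylated H3K9 peptide (500 nM) and SAM (20 uM) started a 2 h room-temperature reaction. Monomethylated product was quantified by antibody-based AlphaScreen chemiluminescence.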
% is set by controls: 0 for no effect and ±100 for the full control effect; potency is the fitted concentration of half-maximal effect; tags give direction and shape of the fitted curve.

Sequence of UniProt Q96KQ7 (Q96KQ7 whole entry, looked up): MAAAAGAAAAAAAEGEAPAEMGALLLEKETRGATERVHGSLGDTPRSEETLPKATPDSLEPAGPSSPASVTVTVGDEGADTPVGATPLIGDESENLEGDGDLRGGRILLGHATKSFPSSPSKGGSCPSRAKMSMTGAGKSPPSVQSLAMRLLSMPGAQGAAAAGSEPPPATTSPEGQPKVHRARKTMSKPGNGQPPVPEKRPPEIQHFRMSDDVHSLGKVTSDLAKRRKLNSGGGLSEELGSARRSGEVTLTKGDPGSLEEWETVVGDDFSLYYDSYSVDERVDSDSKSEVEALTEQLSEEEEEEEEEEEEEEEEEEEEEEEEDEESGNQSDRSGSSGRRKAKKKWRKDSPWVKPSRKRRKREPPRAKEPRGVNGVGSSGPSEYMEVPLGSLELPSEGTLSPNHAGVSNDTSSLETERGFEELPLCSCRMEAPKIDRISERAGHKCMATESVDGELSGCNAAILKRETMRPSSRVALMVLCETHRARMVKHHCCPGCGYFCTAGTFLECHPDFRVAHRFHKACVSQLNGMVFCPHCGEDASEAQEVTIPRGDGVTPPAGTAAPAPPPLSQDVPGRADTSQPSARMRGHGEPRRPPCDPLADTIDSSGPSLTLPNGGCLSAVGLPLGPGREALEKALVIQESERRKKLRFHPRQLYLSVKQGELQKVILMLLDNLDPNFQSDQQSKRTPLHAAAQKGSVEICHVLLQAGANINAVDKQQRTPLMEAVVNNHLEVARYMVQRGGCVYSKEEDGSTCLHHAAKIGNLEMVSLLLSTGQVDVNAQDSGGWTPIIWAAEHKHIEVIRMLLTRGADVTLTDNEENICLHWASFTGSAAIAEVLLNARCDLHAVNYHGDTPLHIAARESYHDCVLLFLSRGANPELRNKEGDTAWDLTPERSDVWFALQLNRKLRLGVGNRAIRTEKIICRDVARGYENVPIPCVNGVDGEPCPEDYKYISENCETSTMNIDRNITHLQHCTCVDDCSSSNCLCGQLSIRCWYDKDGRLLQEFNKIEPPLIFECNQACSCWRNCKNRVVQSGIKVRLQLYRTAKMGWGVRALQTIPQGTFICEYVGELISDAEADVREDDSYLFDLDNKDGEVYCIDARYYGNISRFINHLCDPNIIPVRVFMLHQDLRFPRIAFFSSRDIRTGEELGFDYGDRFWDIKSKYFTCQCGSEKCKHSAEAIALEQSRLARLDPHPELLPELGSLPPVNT

Row | SMILES | Potency | activity, negative = inhibition
1 | COc1ccc(OC)c2c(=O)cc(C(=O)O)[nH]c12 | active: 25.1 µM | –
2 | COC(=O)c1cccc(COC(=O)c2ccc(CS(=O)(=O)c3ccc(C)cc3)cc2)c1 | – | inactive: -2.29% [at 102 µM]
3 | COCCCNc1oc(COc2ccc(Cl)cc2Cl)nc1C#N | active: 31.6 µM | –
4 | CSC1=NSC2=NC(=O)/C(=C/c3coc4ccc(O)cc4c3=O)C(=N)N12 | inconclusive: 35.5 µM [inhibitor, single point] | –
5 | COc1cccc2sc(Nc3nc(C)c(C(C)=O)s3)nc12 | – | inactive: 34.5%
6 | CCOC(=O)c1c(C)oc2ccc(OCc3cc(C(=O)OC)oc3C)cc12 | – | inactive: 21.1%
7 | Cc1ccccc1-c1cc(C(=O)N2CCCC2)c2ccccc2n1 | active: 39.8 µM | –
8 | COCc1ccc(-c2c(-c3cccc(OC)c3)sc3ccc(OC)cc23)cc1 | – | inactive: 5.64% [at 0.501 µM]
9 | Cc1ccc(CS(=O)(=O)CC(C)(O)c2ccc(Cl)cc2)cc1 (stereo unspecified) | – | inactive: -13.4% [at 2.33 µM]
10 | COC(=O)c1sccc1S(=O)(=O)N(CC(=O)NCc1ccccc1)c1ccc(C)cc1 | – | inactive: 10.6%
11 | COC(=O)c1cc(NC(=O)c2ccc(C)cc2)c(=O)oc1C | inconclusive: 79.4 µM [inhibitor, single point] | –
12 | COc1ccc(-c2c(C)sc(NC(=O)c3ccnn3C)c2C#N)cc1 | – | inactive: -2.19% [at 102 µM]
13 | Cc1ccc(Nc2nc(N)nc(N)c2S(=O)(=O)c2ccccc2)cc1 | – | inactive: -18.5%
14 | CCOC(=O)C1=C(c2ccccc2)Nc2ncnn2C1c1cccc(OC)c1OC (stereo unspecified) | – | inconclusive: -68.9% [inhibitor]
15 | CCc1ccc(-n2c(N3CCN(c4cccc(C)c4C)CC3)nc3ccccc3c2=O)cc1 | – | inactive: 7.12%
16 | CCN1CCN(CCNC(=O)c2ccc(/C=C3/Sc4ccccc4N(Cc4ccccc4C)C3=O)cc2)CC1 | inconclusive: 35.5 µM [inhibitor, partial curve, poor fit] | –
17 | CCN(CC)c1cccc(OC(=O)c2cccnc2Cl)c1 | inconclusive: 100 µM [inhibitor, single point] | –
18 | O=C(NNC(=S)Nc1ccc(Cl)cc1)c1cccs1 | active: 25.1 µM | –
19 | Cc1ccc(C2C(C#N)=C(N)N(c3cccnc3)C3=C2C(=O)CCC3)s1 (stereo unspecified) | active: 39.8 µM | –
20 | CCSc1nnc(-c2cccnc2)n1-c1ccc(C)c(Cl)c1 | inconclusive: 89.1 µM [inhibitor, single point] | –
21 | CCC(C)c1ccc(NC(=S)Nc2ccc(OC)c(OC)c2)cc1 (stereo unspecified) | inconclusive: 39.8 µM [inhibitor, single point] | –
22 | CC(C)Oc1ccc(Br)cc1/C=N\NC(N)=S | inconclusive: 89.1 µM [inhibitor, single point] | –
23 | O=C(NN1CCOCC1)c1cn(-c2ccccc2)nc1-c1cccs1 | – | inactive: 1.4%
24 | CCc1nnc(NC(=S)Nc2ccccc2)s1 | inconclusive: 79.4 µM [inhibitor, single point] | –

Row | SMILES | Potency | activity, negative = inhibition
25 | O=C(Oc1cccc2c(O)cccc12)c1ccccc1 | – | inconclusive: -61.5% [inhibitor]
26 | CC(=O)c1cccc(NC(=O)C2C3C=CC(C3=C(c3ccccc3)c3ccccc3)C2C(=O)O)c1 (stereo unspecified) | active: 50.1 µM | –
27 | O=C(CNc1ccc2ccccc2c1)N/N=C/c1ccc(C(=O)O)cc1 | inconclusive: 89.1 µM [inhibitor, partial curve, poor fit] | –
28 | Cc1ccc(CC(=O)Nc2c(C(=O)N3CCN(c4ccccc4)CC3)oc3ccccc23)cc1 | – | inactive: -7.19%
29 | Cn1cccc1C(=O)OCC(=O)Nc1cccc(S(=O)(=O)N2CCOCC2)c1 | inconclusive: 79.4 µM [inhibitor, partial curve, poor fit] | –
30 | C=C1CCC[C@]2(C)C[C@H]3OC(=O)C(CNCC(OC)OC)[C@H]3CC12 (stereo partly specified) | active: 79.4 µM | –
31 | CCOC(=O)c1noc2nc(C)n(CC(=O)Nc3ccc(OC)c(Cl)c3)c(=O)c12 | – | inactive: -20.1%
32 | COc1cc(OC)c2ccc(=O)oc2c1C(CC(=O)N1CCCC1)c1ccc2c(c1)OCO2 (stereo unspecified) | inconclusive: 31.6 µM [inhibitor, single point] | –
33 | CCCN(CCC)S(=O)(=O)c1ccc(C(=O)Nc2nc3c(s2)CCc2ccccc2-3)cc1 | inconclusive: 79.4 µM [inhibitor, single point] | –
34 | CCCCc1nc(S(=O)(=O)c2ccc(Cl)cc2)c(N2CCOCC2)o1 | inconclusive: 35.5 µM [inhibitor, single point] | –
35 | CCCCN(CC)CCNC(=O)C1CCN(c2nnc(C)c3c(C)n(-c4ccc(C)cc4)nc23)CC1 | inconclusive: 1 µM [inhibitor, full curve, poor fit] | –
36 | Cc1oc(/N=C/c2c(O)ccc3ccccc23)c(C#N)c1C | active: 1.58 µM | –
37 | CSCCC(NS(=O)(=O)c1ccc(C)cc1)C(=O)NC1CCCCCC1 (stereo unspecified) | – | inactive: 7.74% [at 102 µM]
38 | CCCc1cc(C(=O)Nc2c(C)n(C)n(-c3ccccc3)c2=O)no1 | inconclusive: 89.1 µM [inhibitor, single point] | –
39 | COc1ccc(C(=O)[C@H]2[C@H]3C(=O)N(c4ccccc4)C(=O)[C@H]3C3C=CC=NN32)cc1 (stereo partly specified) | inconclusive: 10 µM [inhibitor, partial curve, poor fit] | –
40 | Cc1cccc(-c2nc(CS(=O)CC(=O)N3CCc4ccccc4C3)c(C)o2)c1 (stereo unspecified) | active: 31.6 µM | –
41 | CC(=O)O[C@@]1(C)C[C@@H](O)[C@]2(O)C=CO[C@@H](O[C@@H]3O[C@H](CO)[C@@H](O)[C@H](O)[C@H]3O)[C@@H]21 | – | inactive: 10.7% [at 2.33 µM]
42 | O=C(/C=C/c1ccccc1)c1ccc2c(c1)OCCCCO2 | – | inactive: 20.8%
43 | COc1ccc(NC(=S)N2CCCC2c2ccc(OC)c(OC)c2)cc1 (stereo unspecified) | inconclusive: 89.1 µM [inhibitor, partial curve, poor fit] | –
44 | Cc1ccc(-c2nnn(CC(=O)Nc3nnc(C(C)C)s3)n2)cc1 | – | inactive: -3.16% [at 102 µM]
45 | O=C(Cn1ncc2c1-c1ccccc1OC2)N(Cc1ccco1)C1CCCCC1 | inconclusive: 89.1 µM [inhibitor, single point] | –
46 | CCOP(=O)(OCC)C(NC(=O)NS(=O)(=O)c1ccc(C)cc1)c1ccccc1 (stereo unspecified) | inconclusive: 89.1 µM [inhibitor, single point] | –
47 | C/C(=N\Nc1nc(-c2ccc(C)cc2C)cs1)c1cc2ccccc2oc1=O | inconclusive: 39.8 µM [inhibitor, single point] | –
48 | O=C1CCCN1CCCNc1ncnc2c1[nH]c1ccc(Cl)cc12 | – | inactive: -44.2%

Row | SMILES | Potency | activity, negative = inhibition
49 | Cc1ccc(NC(=S)c2nc3ccccc3[nH]2)c(C)c1 | inconclusive: 31.6 µM [inhibitor, single point] | –
50 | O=c1cc(O)nc(-c2ccccc2)s1 | active: 44.7 µM | –
51 | COc1ccc(NC(=O)CN(C)C(=O)C23CC4CC(CC(C4)C2)C3)cc1 | – | inactive: 28.3% [at 102 µM]
52 | CNS(=O)(=O)c1cc(-c2nnc(Nc3ccc(NC(C)=O)cc3)c3ccccc23)ccc1C | inconclusive: 1.26 µM [inhibitor, partial curve, poor fit] | –
53 | Nc1c2c(nc3ccccc13)N(C1CCCCC1)CC2 | inconclusive: 6.31 µM [inhibitor, single point] | –
54 | CC(CNC(=O)c1ccc2c(c1)nc1n2CCOC1)c1ccccc1 (stereo unspecified) | – | inactive: -6.2%
55 | CCOc1cc(/C=N/NC(=O)Cc2ccc(C(F)(F)F)cc2[N+](=O)[O-])ccc1O | inconclusive: 1 µM [inhibitor, full curve] | –
56 | O=C1c2ccccc2C(=O)N1/N=C/c1ccc(O)c(O)c1O | inconclusive: 1.58 µM [inhibitor, full curve, poor fit] | –
57 | O=C1N=c2ccccc2=C1c1sc(=S)n(NC(=O)c2ccccc2)c1O | active: 39.8 µM | –
58 | CCCc1nnc(NC(=O)CCS(=O)(=O)c2ccccc2)s1 | inconclusive: 89.1 µM [inhibitor, single point] | –
59 | COc1cc(/C=C2\SC(=S)N(N(C)c3ccccc3)C2=O)ccc1O | inconclusive: 10 µM [inhibitor, full curve] | –
60 | CCSc1ncc(Cl)c(C(=O)Nc2ccc(S(=O)(=O)Nc3nccc(C)n3)cc2)n1 | inconclusive: 20 µM [inhibitor, partial curve, poor fit] | –
61 | Cc1ccc(Cl)cc1NC(=O)Cn1cc2c(n1)CCCCC2 | – | inactive: 14.5%
62 | COc1ccc(CCNC(=O)N2CCOCC2)cc1 | inconclusive: 22.4 µM [inhibitor, single point] | –
63 | COc1ccc(N2CCC(CNC(=S)Nc3cccc(C)c3)C2)cc1 (stereo unspecified) | inconclusive: 2.82 µM [inhibitor, partial curve, poor fit] | –
64 | Cc1cccc(CSc2nc3cccnc3n2Cc2ccc(C(=O)NCc3ccco3)cc2)c1 | inconclusive: 11.2 µM [inhibitor, partial curve] | –
65 | COc1ccc(CN(Cc2ccco2)c2cnc(S(C)(=O)=O)nc2C(=O)Nc2ccc(C)c(C)c2)cc1 | inconclusive: 17.8 µM [inhibitor, partial curve, poor fit] | –
66 | COC(=O)c1ccc(C(=O)Nc2ccc(-c3nc4cc(NC(=O)c5ccc(C(=O)OC)cc5)ccc4o3)cc2)cc1 | – | inactive: 2.6%
67 | Cc1nnc(SCc2cc(=O)[nH]c(=S)[nH]2)s1 | active: 28.2 µM | –
68 | Nc1cc(C(=O)OCC(=O)NCCNC(=O)COC(=O)c2ccc(Cl)c(N)c2)ccc1Cl | inconclusive: 2.24 µM [inhibitor, partial curve, poor fit] | –
69 | CCOC(=O)Cc1cc(=O)[nH]c(/N=C(\N)Nc2ccc(OC)cc2)n1 | inconclusive: 70.8 µM [inhibitor, partial curve, poor fit] | –
70 | CCOC(=O)C1CCN(C(=O)CCn2c(=O)c3cccn3c3cccnc32)CC1 | – | inactive: 32% [at 102 µM]
71 | C/C(=N\Nc1ccc(C(=O)O)cc1)c1ccc(Cl)s1 | inconclusive: 56.2 µM [inhibitor, partial curve, poor fit] | –
